We go through 93 molecules from PubChem BioAssay AID360 (National Center for Advancing Translational Sciences (NCATS), 2006).

Hit rate of the full screen: of about 48,000 compounds, about 550 (1.1%) were called active. About 4% were inconclusive and are not listed. Cut-off read from the data, not from the text of the source: active = potency below about 15 µM; inconclusive = mostly about 16 µM to 33 µM; inactive = weaker than that. The list shows a part of the results. A value given as a limit tells only on which side of the number the result lay.
Potency is the fitted concentration of half-maximal effect.

UniProt P04062, sequence (P04062 whole entry, looked up): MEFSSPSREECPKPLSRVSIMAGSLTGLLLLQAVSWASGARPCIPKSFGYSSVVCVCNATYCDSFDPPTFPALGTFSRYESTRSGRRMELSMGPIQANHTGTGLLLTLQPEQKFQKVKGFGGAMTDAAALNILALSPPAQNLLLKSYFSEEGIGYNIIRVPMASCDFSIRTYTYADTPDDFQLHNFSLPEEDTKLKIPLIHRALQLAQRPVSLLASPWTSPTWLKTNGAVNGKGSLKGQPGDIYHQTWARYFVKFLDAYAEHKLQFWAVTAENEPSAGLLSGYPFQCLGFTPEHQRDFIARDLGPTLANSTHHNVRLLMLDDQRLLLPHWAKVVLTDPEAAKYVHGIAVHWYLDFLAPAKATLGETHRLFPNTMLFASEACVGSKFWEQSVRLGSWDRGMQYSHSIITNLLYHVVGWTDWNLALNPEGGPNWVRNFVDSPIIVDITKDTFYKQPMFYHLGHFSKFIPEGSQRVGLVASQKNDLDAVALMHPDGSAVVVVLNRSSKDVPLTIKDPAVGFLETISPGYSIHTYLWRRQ

The test concerns the target Lysosomal acid glucosylceramidase (Homo sapiens) (UniProt P04062). Briefly: Glucocerebrosidase.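 Note: the screen sought inhibitors.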 The settings on record: purified enzyme, resorufin glucoside fluorescence (screen aimed at inhibitors), 20 min. A digest of the protocol:
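Compounds titrated against 0.2 nM normal enzyme, 30 uM resorufin beta-D-glucopyranoside substrate, citrate/phosphate buffer with taurocholate and tween-20, pH 5.9. Reaction ran 20 min at room temperature; fluorescence (Ex 548/Em 600) gave AC50.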
For `Oc1[nH]c2ccccc2c1C=NCC1CCCO1` (stereo not drawn), the Potency is inactive: > 76.9 µM.
The value for `S=c1nc2ccccc2c2nc(-c3ccccc3)[nH]n12` was inactive: > 76.9 µM; that for `N/C(=N\c1nc2c(c(=O)[nH]1)CCCC2)Nc1ccccc1` was inactive: > 76.9 µM; that for `Cc1cccc(-c2nnc(SCc3cc(=O)[nH]c4ccccc34)n2C)c1` was inactive: > 76.9 µM.
For `CCOC(=O)c1oc2ccccc2c1NC(=O)Cc1cccs1`, the Potency is inactive: > 76.9 µM.
For the molecule `CC(=O)N1CCN(S(=O)(=O)c2cccc(C(=O)Nc3nc4ccccc4[nH]3)c2)CC1`, the Potency was inactive: > 76.9 µM.
Under `O=C(CCCCCN1C(=O)CCC1=O)NCc1ccccc1` stands inactive: > 76.9 µM; under `Cc1ccc(S(=O)(=O)N(C)CCCC(=O)N2CCN(C=O)CC2)cc1`, inactive: > 76.9 µM; under `CCSc1ccccc1C(=O)Nc1cc(C)on1`, inactive: > 76.9 µM.
With `C=CCc1cccc(CNc2c(C)n(C)n(-c3ccccc3)c2=O)c1O`, the Potency is inactive: > 76.9 µM.
Under `COC(=O)C1CCCN1S(=O)(=O)c1ccc2ccccc2c1` (stereo not drawn) stands inactive: > 76.9 µM; under `COc1cc2cc(CN(CCN3CCCC3)C(=O)Nc3ccccc3Cl)c(=O)[nH]c2cc1OC`, inactive: > 76.9 µM.
The value for `Cc1occc1-c1nnc(SCC(=O)NCCc2ccccc2)n1Cc1ccccc1` was inactive: > 76.9 µM.
The value for `CC(C)(C)n1nnnc1C(c1ccncc1)N1CCN(C2CCCCC2)CC1` (stereo not drawn) was inactive: > 76.9 µM; that for `O=C(CC1COc2ccccc2O1)NC1CCCCC1` (stereo not drawn) was inactive: > 76.9 µM; that for `CC(C)Cc1ccc(/C(=N/O)C(=O)O)s1` was inactive: > 76.9 µM.
Consider `Cc1cc(C)c2[nH]c(=O)c(C(c3nnnn3CC3CCCO3)N3CCC(C)CC3)cc2c1` (stereo not drawn), for which the Potency is inactive: > 76.9 µM.
The value for `CC1(C)CNC(=O)c2sc(N3CCCCC3)nc2C1` was inactive: > 76.9 µM; that for `N#Cc1nc(COc2ccccc2)oc1N1CCN(c2cccc(Cl)c2)CC1` was inactive: > 76.9 µM.
The value for `Cc1ccc(C(=O)CN2CCC(NC(=O)C3CCCCC3)CC2)cc1` was inactive: > 76.9 µM.
As for `CCOC(=O)N1CCN(C(=O)CN(C)S(=O)(=O)c2ccc3c(c2)C(C)(C)C(=O)N3C)CC1`, the Potency is inactive: > 76.9 µM.
As to `COC(=O)c1ccccc1NC(=O)CN(Cc1ccccc1)S(C)(=O)=O`, the Potency is inactive: > 76.9 µM.
Under `CCN(CC)S(=O)(=O)c1cccc(-c2nnc(SCC#N)n2Cc2ccccc2)c1` stands inactive: > 76.9 µM; under `O=C(O)c1ccc(NS(=O)(=O)/C=C/c2ccccc2)cc1`, inactive: > 76.9 µM.
Take `Cc1ccc(CCNC(=O)C2CCC(=O)N2Cc2cccnc2)cc1` (stereo not drawn): the Potency was inactive: > 76.9 µM.
Under `O=C(O)C1CCCN1C(=O)Nc1ccc(F)cc1` (stereo not drawn) stands inactive: > 76.9 µM; under `COc1ccc(NC(=O)CSc2nnc(Cc3cccn3C)n2CCc2ccccc2)c(OC)c1`, inactive: > 76.9 µM; under `CN(C)c1ccc(NC(=O)CN2CCC(C(=O)c3ccc(F)cc3)CC2)cc1`, inactive: > 76.9 µM.
Under `Cc1cccn2c(=O)c3cc(C#N)c(=N)n(Cc4cccnc4)c3nc12` stands inactive: > 76.9 µM; under `COc1cc(N)ccc1NC(=O)c1cccs1`, inactive: > 76.9 µM; under `O=C(CC1C(=O)NCCN1C(=O)Nc1ccccc1)Nc1ccc2c(c1)OCCO2` (stereo not drawn), inactive: > 76.9 µM.
Under `CCCOc1ccccc1C(=O)N(Cc1ccco1)C1CCS(=O)(=O)C1` (stereo not drawn) stands inactive: > 76.9 µM; under `COC(=O)CSc1nnc(-c2ccco2)n1-c1ccc(C)cc1`, inactive: > 76.9 µM.
As for `Cn1cc(/C=N/n2cnc3scc(-c4ccccc4)c3c2=O)c2ccccc21`, the Potency was inactive: > 76.9 µM.
Turning to `O=C(c1cc(-c2cccs2)on1)N1CCCCC1`, the Potency is inactive: > 76.9 µM.
On to `CCCCc1n[nH]c2c1C(=O)CC(C)(C)C2`, for which the Potency was inactive: > 76.9 µM.
Turning to `CCOC(=O)N1CCC(NC(=O)c2cc(C(=O)Nc3cccc(OC)c3)ccc2CO)CC1`, the Potency is inactive: > 76.9 µM.
The value for `COc1ccccc1OCc1ccc(C(=O)N2CCN(C(=O)c3ccco3)CC2)cc1` was inactive: > 76.9 µM; that for `CCOc1ccc(NC(C)c2cc(Cl)ccc2O)cc1` (stereo not drawn) was “inactive”.
The value for `Cc1ccc(SCC(=O)N2CC(C)OC(C)C2)cc1` (stereo not drawn) was inactive: > 76.9 µM.
Under `CCn1c(Cn2nnc(-c3ccccc3)n2)nnc1SCC(=O)Nc1ccccc1` stands active: 9.58 µM; under `C=CCN(CC=C)C(=O)C1CCC(C(=O)N(CC=C)CC=C)CC1` (stereo not drawn), inactive: > 76.9 µM.
Consider `O=C(NCCc1ccccc1)C1CCCN(S(=O)(=O)c2cccnc2)C1` (stereo not drawn), for which the Potency is inactive: > 76.9 µM.
The value for `Cc1ccccc1NC(=O)c1c(O)c2cccc3c2n(c1=O)CCC3` was inactive: > 76.9 µM; that for `COc1ccc(CCNC(=O)Cn2nnc(-c3ccc(N4CCOCC4)cc3)n2)cc1OC` was inactive: > 76.9 µM; that for `C=C1CSc2nc(=O)c3c(C)c(C)sc3n21` was inactive: > 76.9 µM.
The value for `COc1ccc2ccccc2c1C1CC(=O)N2CN(C)CSC2=C1C#N` (stereo not drawn) was active: 14.5 µM.
As to `CC(C)=CC(=O)Nc1ccccc1Br`, the Potency is inactive: > 76.9 µM.
The value for `COc1ccc2nc(SCC(=O)Nc3ccc(S(=O)(=O)N4CCCC4)cc3)c(C#N)cc2c1` was inactive: > 76.9 µM.
For the molecule `Cc1cccc(CN2CCN(CC(=O)O)C2=O)c1`, the Potency is inactive: > 76.9 µM.
The value for `CC(C)C(=O)N1c2ccccc2NC2=C(C(=O)CCC2)C1c1ccc(N(C)C)cc1` (stereo not drawn) was inactive: > 76.9 µM; that for `COc1ccccc1N1CCN(C2=CC(=O)CCC2)CC1` was inactive: > 76.9 µM; that for `Cc1ccc(NC(=O)C(C)N2C(=O)C3CC=C(Cl)CC3C2=O)cc1` (stereo not drawn) was inactive: > 76.9 µM.
`CCOC(=O)c1c(-c2ccc(C)cc2C)csc1NC(=O)CSc1nnnn1C`: the Potency is inactive: > 76.9 µM.
The value for `CC(Sc1nnnn1C)C(=O)Nc1ccc(Oc2ccccc2)cc1` (stereo not drawn) was inactive: > 76.9 µM; that for `CC(NCc1ccco1)C(=O)N1CCc2ccccc2C1` (stereo not drawn) was inactive: > 76.9 µM; that for `Cc1cc(C(=O)Nc2ccc3c(c2)OCO3)cs1` was inactive: > 76.9 µM.
Consider `CSc1ccccc1C(=O)N1CCOCC1`, for which the Potency was inactive: > 76.9 µM.
Under `O=c1n(Cc2ccccc2)c2cc(Cl)cnc2n1Cc1ccccc1` stands “inactive”; under `COc1ccccc1C(=O)Oc1ccc(N2C(=O)CCC2=O)cc1`, inactive: > 76.9 µM; under `O=c1c2c(nc3c(-c4ccc(Cl)cc4)c[nH]n13)CCCC2`, active: 6.48 µM.
Under `Cc1n[nH]c(C)c1Cc1ccc(C(=O)O)cc1` stands inactive: > 76.9 µM; under `CC1CN(c2nc3c(c(=O)[nH]c(=O)n3C)n2Cc2ccccc2F)CC(C)O1` (stereo not drawn), inactive: > 76.9 µM; under `Cc1cc(C)cc(NC(=O)N2CCC(NC(=O)c3ccc(F)cc3)CC2)c1`, inactive: > 76.9 µM.
Under `c1ccn2c(CNc3ncnc4sccc34)nnc2c1` stands inactive: > 76.9 µM; under `O=C(CCc1c[nH]c2ccccc12)NCC1CCCO1` (stereo not drawn), inactive: > 76.9 µM.
With `CCOC(=O)c1oc2ccccc2c1CSc1nnnn1-c1ccc(C)cc1`, the Potency is inactive: > 76.9 µM.
On to `Cc1ccc2c(c1)nnn2C1CCN(C(=O)NC23CC4CC(CC(C4)C2)C3)CC1`, for which the Potency is inactive: > 76.9 µM.
Under `Cn1c(=O)c2nc(Cl)n(Cc3ccc(Cl)cc3Cl)c2n(C)c1=O` stands inactive: > 76.9 µM; under `Cc1c(C(=O)OCc2cc(=O)n3cc(Br)ccc3n2)oc2ccccc12`, inactive: > 76.9 µM.
Under `CCOC(=O)N1CCN(C(=O)C2CCC(CNS(=O)(=O)c3ccc(Cl)cc3)CC2)CC1` (stereo not drawn) stands inactive: > 76.9 µM; under `COC(=O)c1ccc(CSc2nnc3sc4ccccc4n23)o1`, inactive: > 76.9 µM; under `Cc1cc(C(=O)Nc2ccccn2)cs1`, inactive: > 76.9 µM.
The value for `COc1cc(-c2c(C#N)c(=O)[nH]c3c2c(C)nn3-c2ccccc2)ccc1O` was inactive: > 76.9 µM; that for `CN1CCN(CC(=O)N(C)c2nc(-c3ccccc3)cs2)CC1` was inactive: > 76.9 µM.
As for `Cc1noc(/C=C/c2ccco2)c1S(=O)(=O)N1CCC(C(=O)N2c3ccccc3CC2C)CC1` (stereo not drawn), the Potency was inactive: > 76.9 µM.
Take `O=C(CSCc1ccc(Br)cc1)N1CCOCC1`: the Potency is inactive: > 76.9 µM.
The value for `CCn1c(Cc2ccccc2)nnc1SCC(=O)Nc1cc(C)on1` was inactive: > 76.9 µM.
Under `Cc1cccc(NC(=O)Cn2c(=O)oc3ccccc32)c1` stands inactive: > 76.9 µM; under `O=C(NC1CCCC1)c1cc(-c2cccs2)on1`, inactive: > 76.9 µM; under `COC(=O)c1ccc(NC2(C#N)C(=O)Nc3ccccc32)cc1` (stereo not drawn), inactive: > 76.9 µM.
Under `CCNC(=O)CC1C(=O)N(c2ccc(F)cc2)C(=O)N1CCc1ccc(OC)cc1` (stereo not drawn) stands inactive: > 76.9 µM; under `CCOCC(=O)Nc1nnc(COc2ccc(Cl)cc2)s1`, inactive: > 76.9 µM; under `O=c1[nH]c2cc(Cl)ccc2n1-c1ccccc1`, inactive: > 76.9 µM.
`COc1ccccc1NC(=O)CN1CCC(n2nnc3cc(F)ccc32)CC1`: the Potency is inactive: > 76.9 µM.
Under `O=C(CCS(=O)(=O)c1cccs1)N1CCN(c2ccc(F)cc2)CC1` stands inactive: > 76.9 µM; under `Clc1ccccc1Cn1nnc2c(Nc3ccccc3)ncnc21`, inactive: > 76.9 µM; under `CCN1C(=O)CC(N2CCC(C(=O)OC)CC2)C1=O` (stereo not drawn), inactive: > 76.9 µM.
The value for `O=C(Cc1cccs1)Nc1cccnc1` was inactive: > 76.9 µM; that for `O=C(NCc1cccs1)N[C@@H](Cc1ccccc1)C(=O)O` was inactive: > 76.9 µM.
In the case of `CCOC(=O)c1c(C)c(C(=O)N2CCCCCC2)c(C)n1C`, the Potency is inactive: > 76.9 µM.
Turning to `O=C(CCCCCN1C(=O)CCC1=O)Nc1ccc2c(c1)OCO2`, the Potency was inactive: > 76.9 µM.
Under `O=C(CN(Cc1ccc2c(c1)OCO2)C(=O)CNC(=O)c1ccco1)NC1CCCCC1` stands inactive: > 76.9 µM.
